Assay results from PubChem BioAssay AID504832 (National Center for Advancing Translational Sciences (NCATS), 2011).
Several values for one entry are separate records, joined by “and”; a condition that tells them apart may be missing. Equal entries are not always repeated. About 18,000 (5.8%) of roughly 310,000 compounds were called active. The shares of active, inactive and inconclusive entries below differ from those in the screen. Calls follow the shape of the dose curve; as a rule, active = well fitted inhibition curve with a large enough effect; inconclusive = small, poorly fitted or top-dose-only effect, or another doubt; inactive = no such curve, though single readings can be large or run the other way. Potencies of inconclusive entries are doubtful fits and often do not repeat.
Potency is read from the fitted curve at half-maximal effect; tags tell the direction and shape of the fitted curve.

Assay: Primary qHTS for delayed death inhibitors of the malarial parasite plastid, 48 hour incubation
Details: P. falciparum luciferase growth in erythrocytes; series mostly up to 28.7 µM
Summary of the method: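 Firefly luciferase activity from engineered P. falciparum reports growth; inhibitors lower the luminescent signal. Cultures contained 2% hematocrit erythrocytes at 0.1% final parasitemia.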
With `COc1ccc(NC(=O)CSc2nnc(COc3ccccc3)n2Cc2ccco2)cc1OC` the Potency was inconclusive: 18.5 µM [inhibitor, single point].
With `O=C(C[n+]1cccc(/C=N/O)c1)N1CCCc2ccccc21` the Potency was inconclusive: 18.5 µM [inhibitor, partial curve, poor fit].
In the case of `Cc1ccc(C2CC(=O)N3CN(Cc4ccco4)CSC3=C2C#N)cc1` (configuration not stated), the Potency is reported as inconclusive: 7.38 µM [inhibitor, partial curve, poor fit].
For `O=C(Nc1nc(-c2ccc(S(=O)(=O)N3CCCC3)cc2)cs1)c1cccs1`, the Potency was inconclusive: 9.28 µM [inhibitor, single point].
With `Clc1cccc(-c2csc(Nc3cccnc3)n2)c1` the Potency was inconclusive: 9.28 µM [inhibitor, single point].
With `C=CCOc1ccc(CN(C)CC(O)COc2ccc(CCC(C)=O)cc2)cc1` (configuration not stated) the Potency was inconclusive: 11.7 µM [inhibitor, partial curve, poor fit].
With `CN1CCN(c2nc(Nc3ccccc3)nc(N)c2[N+](=O)[O-])CC1` the Potency was inconclusive: 18.5 µM [inhibitor, single point].
With `Cc1ccccc1CN1C[C@@H]2C[C@@H](c3cn[nH]c3-c3ccc(F)cc3)N3CCC[C@@]23C1=O` the Potency was inconclusive: 10.4 µM [inhibitor, partial curve].
In the case of `O=C(C1CCC1)N(CCc1ccccc1)Cc1nc2ccccc2c(=O)[nH]1`, the Potency is reported as inconclusive: 10.4 µM [inhibitor, partial curve].
For `CCCOC(=O)C1=C(C)N(C)C(=O)NC1c1cc2c(cc1[N+](=O)[O-])OCO2` (configuration not stated), the Potency was “inactive”.
With `Cc1cc(C)nc(-n2nc(C)c(Oc3ccccc3O)c2C)n1` the Potency was inconclusive: 2.08 µM [inhibitor, full curve, poor fit].
For `COc1ccc(N2CCN(C(c3cc(OC)ccc3OC)c3nnnn3CC3CCCO3)CC2)cc1` (configuration not stated), the Potency was inconclusive: 16.5 µM [inhibitor, partial curve, poor fit].
For `COc1ccc(CNC(C)CCc2ccccc2)cc1` (configuration not stated), the Potency was “inactive”.
For `CC1CCCCN1C(=O)CSc1nc(C2CC2)nc2c1cnn2-c1ccccc1` (configuration not stated), the Potency was inconclusive: 10.4 µM [inhibitor, single point].
With `COc1ccc(C2CC(=O)C3=C(C2)Nc2ccccc2N(C(=O)CCC(=O)O)C3c2ccc(F)cc2)cc1OC` (configuration not stated) the Potency was inconclusive: 0.0029 µM [inhibitor, full curve, poor fit].
With `O=C(NCCc1ccccn1)c1ccc(NS(=O)(=O)c2ccc(F)cc2)cc1` the Potency was “inactive”.
For `COc1ccc(C(=O)NC(=S)Nc2ccc(CN3CCOCC3)cc2)cc1Br`, the Potency was inconclusive: 18.5 µM [inhibitor, partial curve, poor fit].
In the case of `CCOC(=O)C(C(=O)OCC)C(Nc1cccc(Br)c1)c1ccccc1` (configuration not stated), the Potency is reported as “inactive”.
With `CCN(CC)CCCNC(=O)c1cc2c(-c3cccc(OC)c3)nn(C)c2s1` the Potency was active: 8.28 µM.
With `N/N=C(\Cc1cscn1)c1ccc(O)cc1O` the Potency was “inactive”.
With `CCC(Sc1nc2n[nH]c(C)c2c(=N)n1-c1cc(Cl)ccc1C)C(=O)N1CCOCC1` (configuration not stated) the Potency was inconclusive: 4.65 µM [inhibitor, partial curve, poor fit].
With `COc1ccc(NS(=O)(=O)c2cc(NC(=O)CC(=O)c3ccc([N+](=O)[O-])cc3)ccc2C)cc1` the Potency was inconclusive: 18.5 µM [inhibitor, single point].
In the case of `CCC(=O)NC(=S)Nc1ccc(N2CCN(C(=O)c3ccc(Cl)cc3)CC2)cc1`, the Potency is reported as inconclusive: 11.7 µM [inhibitor, single point].
For `CCOC(=O)C1(Cc2ccc(Cl)cc2)CCN(C(=O)CCc2cnccn2)CC1`, the Potency was inconclusive: 14.7 µM [inhibitor, partial curve, poor fit].
In the case of `Cc1ccc(NC(=O)COc2ccc(Cl)cc2Cl)cc1S(=O)(=O)N1CCOCC1`, the Potency is reported as inconclusive: 13.1 µM [inhibitor, single point].
In the case of `CCN(CC)c1ccc(/C=N/NC(=O)CNC(=O)/C=C/c2ccco2)cc1`, the Potency is reported as “inactive”.
In the case of `CC(=O)Nc1ccc(SCC(=O)c2cc(C)ccc2C)cc1`, the Potency is reported as “inactive”.
With `CC(=O)Nc1ccc(NC(=O)C(Cc2ccccc2)NC(=O)C2CCCCC2)cc1` (configuration not stated) the Potency was inconclusive: 0.0828 µM [inhibitor, full curve, poor fit].
For `CC(C)(C)OC(=O)NCCCC[C@H](NC(=O)c1nc[nH]c1C(=O)N1CCN(C(=O)OC(C)(C)C)CC1)C(=O)OC(C)(C)C`, the Potency was inconclusive: 1.65 µM [inhibitor, full curve].
For `Cc1nnc(SCC(=O)NC2CCCCCC2)n1N`, the Potency was inconclusive: 16.5 µM [inhibitor, single point].
With `COc1cccc(N2CCN(CC(=O)NC3=Nc4ccccc4N=C(C)C3c3ccccc3)CC2)c1` (configuration not stated) the Potency was inconclusive: 11.7 µM [inhibitor, partial curve].
For `Cc1ccc(C2C(C#N)=C(N)Oc3n[nH]c(-c4cccs4)c32)cc1` (configuration not stated), the Potency was inconclusive: 0.37 µM [inhibitor, partial curve, poor fit].
With `COc1ccc2cc3cc(C(=O)N4CCN(C5CCCCC5)CC4)oc3nc2c1` the Potency was inconclusive: 14.7 µM [inhibitor, partial curve, poor fit].
For `O=C(CNc1cc(S(=O)(=O)N2CCOCC2)ccc1NCC1CCCO1)Nc1ccc(F)c(F)c1` (configuration not stated), the Potency was inconclusive: 14.7 µM [inhibitor, single point].
For `CCN1CCN(S(=O)(=O)c2ccc(Cl)c(C(=O)NC(C)c3ccccc3Cl)c2)CC1` (configuration not stated), the Potency was “inactive”.
For `O=C1NC(=O)/C(=C/c2ccc(OS(=O)(=O)c3ccc(F)cc3F)cc2)N1`, the Potency was inconclusive: 18.5 µM [inhibitor, single point].
In the case of `CCC1Sc2ccc(S(=O)(=O)CCC(=O)NCc3ccco3)cc2NC1=O` (configuration not stated), the Potency is reported as “inactive”.
With `CCc1ccc2c(c1)c(N=NC1=NC(=O)CS1)c(O)n2CC` the Potency was inconclusive: 11.7 µM [inhibitor, single point].
For `CCOc1ccccc1C(=O)NCC(=O)OCC(=O)c1ccc2c(c1)OCCO2`, the Potency was “inactive”.
In the case of `Cc1cc(N2CCN(C)CC2)nc(=S)[nH]1`, the Potency is reported as “inactive”.
For `Cc1occc1-c1nnc(SCC(=O)N2CCN(c3ccccc3F)CC2)n1C`, the Potency was “inactive”.
For `O=S(=O)(c1ccc(Cl)cc1)N1CCC(n2cccc2)CC1`, the Potency was “inactive”.
In the case of `COc1ccc(Cl)cc1NC(=S)NCc1ccco1`, the Potency is reported as “inactive”.
With `NS(=O)(=O)c1ccc(CCNc2nc(CN3CCOCC3)nc3sc4c(c23)CCC4)cc1` the Potency was inconclusive: 8.28 µM [inhibitor, partial curve, poor fit].
With `CCOC(=O)c1cc2sccc2n1CC(=O)Nc1ccc(OC)cc1OC` the Potency was inconclusive: 18.5 µM [inhibitor, single point].
For `COc1ccc(/C=C/c2n[nH]c(=O)c(C#N)c2C)cc1`, the Potency was inconclusive: 20.8 µM [inhibitor, partial curve, poor fit].
With `COc1ccccc1N1CCN(C(=O)CCc2nnc3ccc(N4CCC(C)CC4)nn23)CC1` the Potency was active: 10.4 µM.
With `COc1ccccc1N(CC(=O)Nc1cccnc1)S(C)(=O)=O` the Potency was “inactive”.
In the case of `Cn1nc(C(=O)Nc2cccc(S(=O)(=O)N3CCOCC3)c2)c2ccccc2c1=O`, the Potency is reported as inconclusive: 18.5 µM [inhibitor, single point].
With `O=C(NCc1cccnc1)c1ccc(-c2ccc(Cl)cc2)o1` the Potency was “inactive”.
In the case of `CCC(=O)NC(c1ccco1)c1cc(Cl)c2cccnc2c1OC` (configuration not stated), the Potency is reported as inconclusive: 4.15 µM [inhibitor, partial curve] and inconclusive: 18.5 µM [inhibitor, single point].
For `CCn1cc(C(=O)NCC2CCCO2)c(=O)c2cc(S(=O)(=O)N3CCCCC3)ccc21` (configuration not stated), the Potency was inconclusive: 5.22 µM [inhibitor, partial curve, poor fit].
With `CCCOc1ccc(CNC(=O)C2CCN(C(=O)N3CCOc4ccccc43)CC2)cc1` the Potency was inconclusive: 18.5 µM [inhibitor, single point].
In the case of `Nc1nc(NCc2ccccc2)n(-c2ccccc2)n1`, the Potency is reported as “inactive”.
For `NNC(=S)NC1CCCCCCCCCCC1`, the Potency was inconclusive: 9.28 µM [inhibitor, partial curve, poor fit].
In the case of `COC(=O)C1=C(C)N(Cc2ccccc2)C(=NCc2ccc(OC)cc2)N[C@H]1c1ccccc1`, the Potency is reported as inconclusive: 10.4 µM [inhibitor, single point].
For `O=C(NNC(=O)C1CC1)Nc1ccc(Cl)cc1`, the Potency was “inactive”.
In the case of `CCCn1nnc(NC(=O)/C=C/c2ccc(C(C)C)cc2)n1`, the Potency is reported as inconclusive: 0.0738 µM [inhibitor, full curve, poor fit].
With `COc1ccc(CCN2CCCn3c2nc2c3c(=O)n(CC(N)=O)c(=O)n2C)cc1OC` the Potency was “inactive”.
For `COc1cc(C(=O)Nc2ccc(Cl)c([N+](=O)[O-])c2)cc(OC)c1OC`, the Potency was inconclusive: 11.7 µM [inhibitor, single point].
In the case of `CCn1cc(/C=N\NC(=O)c2ccc(Cl)cc2)cn1`, the Potency is reported as “inactive”.
For `COc1ccc(OC)c2c(N3CCN(C)CC3)cc(C(F)(F)F)nc12`, the Potency was inconclusive: 18.5 µM [inhibitor, single point].
For `CCOC(=O)c1sc2nc(COC(=O)c3c(F)cccc3F)[nH]c(=O)c2c1C`, the Potency was inconclusive: 11.7 µM [inhibitor, partial curve].
With `CCCCOc1ccc(S(=O)(=O)N2CCCCCC2)cc1` the Potency was “inactive”.
With `Cc1ccc(NS(=O)(=O)c2cc(C(=O)NCc3ccccn3)ccc2Cl)cc1C` the Potency was “inactive”.
With `O=C(CCCOc1ccccc1)Nc1ccc(S(=O)(=O)Nc2ccccn2)cc1` the Potency was inconclusive: 16.5 µM [inhibitor, partial curve, poor fit].
In the case of `CC(Oc1cccc(Cl)c1)C(=O)N1CCN(c2ncccn2)CC1` (configuration not stated), the Potency is reported as inconclusive: 18.5 µM [inhibitor, single point].
